# In the supplement of paper PMC10338343:
# ± gives the standard deviation. Whole data set: some 3,000 sequences, median “pre-steady-state target cleavage rate” near 0.0079, cut for the highest 2% near 0.2. The list shows a part of the results, in another mix than the full data.
# Tested on: MILI (PIWIL2) piRISC loaded with piRNA #2 (26 nt)
# Assay: pre-steady-state target cleavage rate (min^-1); MIWI and MILI are mouse PIWI proteins and EfPiwi is from a freshwater sponge; tags in brackets are library labels; higher = faster piRNA-guided slicing of the target
# Conditions: guide: piRNA #2 5'p-UUAGGUAACCCAGUAGAUCCAGAGGA; auxiliary factor: 500 nM mouse GTSF1
# Procedure, shortened: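 For Cleave-'n-Seq, a transcribed, DNA-blocked target RNA library […] met 1 nM active affinity-purified piRISC with one synthetic guide at 33 °C for 0–8 or 0–960 min in HEPES–potassium acetate buffer, with or without 500 nM GTSF1 partner protein. Uncleaved targets were sequenced and normalised to depth and weakly complementary targets, with three trials pooled and k3 capped at 0.0001 min^-1. A burst-and-steady-state fit supplied the pre-steady-state cleavage rate.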
# 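Note: 1 nM active piRISC with 0.1 nM target library at 33 °C single turnover.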
row,Sequence,pre-steady-state target cleavage rate
1,CUUAAGGACAGGAUCUACUGGGUUACCUUA,0.0127 ± 0.0097
2,CUUAAGGAGUGGAUCUGCUGGGUUACCUAA,0.0101 ± 0.0049
3,CUUAUCCUGUGGAUCUACUGGGUUACCAAA,0.0146 ± 0.0049
4,CUUAACCUCUGGAUCUACUGGGUUUGCUAA,0.305 ± 0.066
5,CUUAACCUCAGGAUCUACUGGGUUACCUAA,0.0969 ± 0.018
6,CUUAAGGUCUGGGAUCUACUGGGUUACCUAA,0.0581 ± 0.014
7,CUUAAGCUCUGGAUCCUACUGGGUUACCUAA,0.0172 ± 0.0077
8,CUUAAGGACUGGAUCUACUGGGUUACUUAA,0.0226 ± 0.0096
9,CUUAUCCUCUGGAUGCUACUGGGUUACCUAA,0.0881 ± 0.02
10,CUUAUCCUCUGGAUCUACUGGAGUUACCUAA,0.00429 ± 0.0039
11,CUUAACCUGUGGAACUACUGGGUUACCUAA,0.0364 ± 0.017
12,CUUAACCUCUGGAUCUACUGAGGUUACCUAA,0.0055 ± 0.0041
13,CUUAAGCACAGGAUCUACUGGGUUACCUAA,0.0242 ± 0.011
14,CUUAACCUCUGGAUCUACUGGGUGUACCUAA,0.0767 ± 0.019
15,CUUAUCGUCUGGAUCUACUGGGUUACGUAA,0.0246 ± 0.0097
16,CUUAUCCUCUCGAUCUACUGGGUUACCUAA,0.169 ± 0.02
17,CUUAAGCUCUGGAUCUACUGGGUCUACCUAA,0.0472 ± 0.0092
18,CUUAAGGUCUGGAUCUACUGGGUAUGCUAA,0.0114 ± 0.0055
19,CUUAAGGACUGGCUCUACUGGGUUACCUAA,0.0352 ± 0.019
20,CUUAACCUCUGGAUCUACUGGGUUACGAAA,0.0868 ± 0.024
21,CUUAUCGUCUGGAUCUACUGCGUUACCUAA,0.0132 ± 0.0052
22,CUUAAGCUCUGGAUCUACUGGGUUACGAAA,0.0655 ± 0.016
23,CUUAUCCUCCUGGAUCUACUGGGUUACCUAA,0.0909 ± 0.022
24,CUUAAGGUCUGCAUCUACUGGGUUUCCUAA,0.00793 ± 0.0048

row,Sequence,pre-steady-state target cleavage rate
1,CUUAUGCUCUCGAUCUACUGGGUUACCUAA,0.158 ± 0.025
2,CUUAAGCUCUGGAUCAACUGGGAUACCUAA,0.0143 ± 0.0049
3,CUUAACGUCUGGAUCUACAGGGUUACCUAA,0.099 ± 0.014
4,CUUAACCUCAGGAUCUUCUGGGUUACCUAA,0.0628 ± 0.019
5,CUUAAGGAGACCUAGAUCUGUGGUUACCUAA,< 0.0001
6,CUUAAGCUCUGGGUCUACUGGGUUACCUAA,0.104 ± 0.027
7,CUUAAGGUCUCGAUCUACUGGGUUACCAAA,0.0255 ± 0.0086
8,CUUAUCCUCUGGAUCUACUGGUUUACCUAA,0.0133 ± 0.0054
9,CUUAAGCUCUGGAUCUACUGGGUUAGGAAA,0.0151 ± 0.0075
10,CUUAUGCUGUGGAUCUACUGGGUUACCUAA,0.0703 ± 0.017
11,CUUAAGCUCUGGAACUACUGGGUUACGUAA,0.0506 ± 0.019
12,CUUAUCCUCUGGAUCUACAGGGUUUCCUAA,0.0854 ± 0.024
13,CUUAACCUCUGGAUCUAGUGGGUUACCUUA,0.0692 ± 0.015
14,CUUAAGGACUGGAUCUACUGGGUUACCUAU [g2:g22:cont:t1U],0.0422 ± 0.018
15,CUUAAGGAGUGGAUCUACUGGGUUACCUUA,0.0347 ± 0.011
16,CUUAUCCUCUGGAUCUAAUGGGUUACCUAA,0.0581 ± 0.011
17,CUUAUCCUCGGGAUCUACUGGGUUACCUAA,0.0836 ± 0.034
18,CUUAAGGAGUGGUUCUUCUGGGUUACCUAA,0.00452 ± 0.0043
19,CUUAUCCUCUGGAUCUAGUGGGUUACGUAA,0.0179 ± 0.004
20,CUUAUCCACUGGAUCUACUGGGUUACCAAA,0.0504 ± 0.0096
21,CUUAAGCUCUGAAUCUACUGGGUUACCUAA,0.0294 ± 0.01
22,CUUAAGGACUGGAUCUACAGGGUUACGUAA,0.016 ± 0.0054
23,CUUAACGUCUGGAUCUACUGGGUUACCAAA,0.0696 ± 0.017
24,CUUAAGCUCUGGAUCUACUGGGUUAUCUAA,0.0639 ± 0.011

row,Sequence,pre-steady-state target cleavage rate
1,CUUAAGGAGUGGAUCAACUGGGUUACCAAA,0.00418 ± 0.0038
2,CUUAAGGUCUGGAUAUACUGGGUUACCUAA,0.0732 ± 0.011
3,CUUAAGGUCUCGAUCUACUGGGUUAGCUAA,0.0089 ± 0.0044
4,CUUAAGCUCUCGAACUACUGGGUUACCUAA,0.0609 ± 0.012
5,CUUAACCUCUGGAUCUACUGGGCUACCUAA,0.0375 ± 0.014
6,CUUAAGGAGUGGAUCUAUUGGGUUACCUAA,0.00881 ± 0.0035
7,CUUAUCCUCUGGACCUACUGGGUUACCUAA,0.0996 ± 0.024
8,CUUAAGGUCUGGAUCUACAGGGUUACCUAA,0.111 ± 0.014
9,CUUAUCCUCUGGAUCUACUGCGUUACCAAA,0.00957 ± 0.0042
10,CUUAAGGAGAGGAAUCUACUGGGUUACCUAA,0.00399 ± 0.0036
11,CUUAACGUCUGGAUCUACUGGGUUUCCUAA,0.0895 ± 0.021
12,CUUAACCUGUGGAUCUACUGGGUUAGCUAA,0.00856 ± 0.0053
13,CUUAAGCUCUGGAUCUACGGGUUACCUAA,0.00958 ± 0.0046
14,CUUAAGCUCUAGGAUCUACUGGGUUACCUAA,0.0369 ± 0.0086
15,CUUAAGGAGACGAUCUACUGGGUUACCUAU [g2:g19:cont:t1U],0.00667 ± 0.0036
16,CUUAAGGACAGGAUCUAGUGGGUUACCUAA,0.00804 ± 0.0074
17,CUUAACCUCUGGUUCUACUGGGUUUCCUAA,1.67 ± 0.98
18,CUUAACCUCUGGAUCUAUGGGUUACCUAA,0.0349 ± 0.01
19,CUUAAGCUCUCGAUCUACUGGGUUUCCUAA,0.0761 ± 0.025
20,CUUAACCUCUGGAACUACUGGGAUACCUAA,0.0422 ± 0.022
21,CUUAACCUCUGGUUCUAGUGGGUUACCUAA,0.068 ± 0.014
22,CUUAUCCUCUGGAUCUACUGGUUACCUAA,0.0077 ± 0.0031
23,CUUAACCUGUGGAUCUACUGGGUUACCAAA,0.0256 ± 0.0095
24,CUUAACCUCUGGAUCUAUUGGGUUACCUAA,0.0785 ± 0.023
